# Measured values published in PubChem BioAssay AID1745853 (National Center for Advancing Translational Sciences (NCATS), 2022).
# Several values for one entry are separate records, joined by “and”; a condition that tells them apart may be missing. Equal entries are not always repeated. This is one part of the list. The main result of the screen is listed elsewhere. These columns were measured beside it and carry no call.
# How the values were obtained:
# Test in all cases: Primary Screen for Target Class Profiling of Small Molecule Inhibitors of Methyltransferases
# [1] = molecular target: Glycine N-methyltransferase (Homo sapiens) (UniProt Q14749); conditions: purified enzyme, MTase-Glo SAH luminescence; measured here: GNMT inhibition; at 40 µM; stronger effect = lower value
# Procedure, shortened: (§1)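 Each enzyme was reacted with SAM and its substrate, with compounds tested once at 40 uM; SAH formed was read by MTase-Glo luminescence.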
# [2] = molecular target: Guanidinoacetate N-methyltransferase (Homo sapiens) (UniProt Q14353); conditions: purified enzyme, MTase-Glo SAH luminescence; measured here: GAMT inhibition; at 40 µM; stronger effect = lower value
# Procedure, shortened: as §1
# [3] = molecular target: Histamine N-methyltransferase (Homo sapiens) (UniProt P50135); conditions: purified enzyme, MTase-Glo SAH luminescence; measured here: HNMT inhibition; at 40 µM; stronger effect = lower value
# Procedure, shortened: as §1
# [4] = molecular target: Nicotinamide N-methyltransferase (Homo sapiens) (UniProt P40261); conditions: purified enzyme, MTase-Glo SAH luminescence; measured here: NNMT inhibition; at 40 µM; stronger effect = lower value
# Procedure, shortened: as §1
# [5] = molecular target: Phenylethanolamine N-methyltransferase (Homo sapiens) (UniProt P11086); conditions: purified enzyme, MTase-Glo SAH luminescence; measured here: PNMT inhibition; at 40 µM; stronger effect = lower value
# Procedure, shortened: as §1
# % is scaled to controls: 0 for no effect and ±100 for the full control effect.
SMILES,"activity change, negative = inhibition [1] [%]","activity change, negative = inhibition [2] [%]","activity change, negative = inhibition [3] [%]","activity change, negative = inhibition [4]","activity change, negative = inhibition [5]"
CC(C)NC(=O)NC[C@H]1C[C@@H]2CCN1C[C@@H]2CN1CCC(Cc2ccccc2)CC1,-1.37,-5.27,-20.4,-10.9%,6.29%
O=C(NCCc1ccccc1)N1Cc2ccccc2-n2cccc2C1c1ccc(F)cc1 (stereo not given),-2.28,-1.85,-5.6,-8.47%,-2.65%
CCOc1ccccc1NC(=O)N1Cc2ccccc2-n2cccc2C1CC (stereo not given),-22.8,1.85,0.698,-2.53%,2.23%
CCOC(=O)c1cccc(NC(=O)N2Cc3ccccc3-n3cccc3C2c2ccc(OC)cc2)c1 (stereo not given),8.27,2.21,1.5,-2.19%,1.71%
Cc1cccc(NC(=O)N2Cc3ccccc3-n3cccc3C2c2ccc(Cl)cc2)c1 (stereo not given),-0.355,3.02,9.2,5.8%,10.8%
Cc1sc2c(c1C)C(c1ccc(Cl)cc1)=N[C@@H](CC(=O)OC(C)(C)C)c1nnc(C)n1-2,-6.16,5.81,8.84,-34.1% and -40.7%,11.6% and -1.62%
O=C1NCCCCCCN[C@H]2CCC[C@@H]12,-0.786,1.07,1.02,2.38%,1.97%
C[C@@H](CN1CCC(n2c(=O)[nH]c3cc(Br)ccc32)CC1)NC(=O)[C@@H]1C[C@H]1c1ccccc1,-2.83,-2.78,-3.59,-23.3%,-7.64%
Cc1ccc(Cl)cc1NC(=O)N1Cc2ccccc2-n2cccc2C1c1ccc(N(C)C)cc1 (stereo not given),7.63,0,2.08,4.6%,5.23%
CCc1ccc(C2c3cccn3-c3ccccc3CN2C(=O)Nc2cccc(OC)c2)cc1 (stereo not given),2.9,5.59,-5.14,-2.83%,2.38%
CC(=O)c1ccc(NC(=O)OC[C@H]2C[C@@H]3CCN2C[C@@H]3c2cc(-c3cccs3)nn2C)cc1,-6.54,-10.7,-8.1,-8%,-4.65%
COc1ccc(C2c3cccn3-c3ccccc3CN2C(=O)Nc2cccc(C)c2)cc1OC (stereo not given),15.7,3.37,9.38,9.96%,9.2%
COc1ccc(NC(=O)N2Cc3ccccc3-n3cccc3C2c2ccc(OC)c(OC)c2)cc1 (stereo not given),7.66,3.29,3.43,-0.633%,6.14%
COc1cccc(CNC(=O)N2Cc3ccccc3-n3cccc3C2c2ccc(C(C)C)cc2)c1 (stereo not given),-3.35,4.85,1.55,-0.871%,-1.47%
CCOc1ccc(C2c3cccn3-c3ccccc3CN2C(=O)Nc2cc(F)ccc2F)cc1 (stereo not given),-5.32,1.14,-2.35,-5.17%,-2.1%
CCC1c2cccn2-c2ccccc2CN1C(=O)Nc1cccc(SC)c1 (stereo not given),4.17,-1.3,-2.05,-5.25%,-1.83%
Cc1c(N[C@@H](c2nnc(-c3ccc(C#N)cc3)o2)[C@H](C)O)ccc(C#N)c1Cl,2.56,11,1.34,-16.7%,2.22%
COc1ccccc1NC(=O)N1Cc2ccccc2-n2cccc2C1c1ccc(F)cc1 (stereo not given),-3.36,1.08,7.07,6.68%,8.35%
CCC1c2cccn2-c2ccccc2CN1C(=O)Nc1cc(C)cc(C)c1 (stereo not given),4.18,3.62,6.85,8.09%,11.7%
COCc1cn(C[C@H]2C[C@@H]3CCN2C[C@@H]3C(=O)NCc2ccco2)nn1,-2.67,-6.34,0.31,-4.35%,-0.027%
Cc1ccc(NC(=O)N2Cc3ccccc3-n3cccc3C2C(C)C)cc1C (stereo not given),-4.39,0.676,-1.79,-4.88%,-3.57%
CCOc1ccccc1NC(=O)N1Cc2c(C)cc(C)nc2-n2cccc2C1c1ccc(F)cc1 (stereo not given),-1.3,3.91,3.98,-0.387%,-2.51%
Cc1ccc(CNC(=O)N2Cc3ccccc3-n3cccc3C2c2ccc(N(C)C)cc2)cc1 (stereo not given),12.9,2.63,6.02,11%,11.1%
Cc1cccc(C2c3cccn3-c3ccccc3CN2C(=O)Nc2ccccc2)c1 (stereo not given),13.4,0,3.74,4.47%,5.53%
Cc1cc(C)cc(NC(=O)N2Cc3ccccc3-n3cccc3C2c2cccc(C)c2)c1 (stereo not given),8.18,-1.55,3.58,-6.92%,0.577%
CN1C(=O)C(Cc2ccc3ccccc3c2)N=C(c2ccc(O)cc2)c2cc(Cl)ccc21 (stereo not given),4.16,-3.4,9.32,-27.8%,-1.27%
COc1ccc(C2c3cccn3-c3ccccc3CN2C(=O)Nc2cc(F)ccc2F)cc1 (stereo not given),7.47,0,1.38,-1.83%,5.19%
O=C(Nc1ccccc1)C1=NO[C@@H]2CN(Cc3ccccn3)C[C@H]12,-3.31,-2.28,-2.89,-2.65%,-4.39%
CCOC(=O)C1CCC(CNC(=O)N2Cc3ccccc3-n3cccc3C2C)CC1 (stereo not given),8.82,1.8,0.97,-6.44%,5.89%
CCOc1ccc(C2c3cccn3-c3ccccc3CN2C(=O)Nc2cccc(C)c2C)cc1 (stereo not given),-4.76,2.72,-8.93,-8.52%,-6.39%
